Data: patent US20210101998A1
Each block holds one binder with its values, some of them ahead of it.

Molecular target: endogenous TFPI in human plasma (human), P10646
Test: cell-based or functional assay

Dilute PT EC50: 0.44 nM
TGA Velocity EC50: 1.7 nM
dilute prothrombin time EC50: 0.44 nM
B1: hz4F36 (antibody, human IgG4 S228P, kappa)
light: DIVMTQTPLSLSVTPGQPASISCKSSQSLLESDGKTYLNWYLQKPGQSPQLLIYLVSILDSGVPDRFSGSGSGTDFTLKISRVEAEDVGVYYCLQATHFPQTFGGGTKVEIKRTVAAPSVFIFPPSDEQLKSGTASVVCLLNNFYPREAKVQWKVDNALQSGNSQESVTEQDSKDSTYSLSSTLTLSKADYEKHKVYACEVTHQGLSSPVTKSFNRGEC
heavy: EVQLVESGGGLVKPGGSLRLSCAASGFTFSNYAMSWVRQTPEKRLEWVATISRSGSYSYFPDSVQGRFTISRDNAKNSLYLQMNSLRAEDTAVYYCARLGGYDEGDAMDSWGQGTTVTVSSASTKGPSVFPLAPCSRSTSESTAALGCLVKDYFPEPVTVSWNSGALTSGVHTFPAVLQSSGLYSLSSVVTVPSSSLGTKTYTCNVDHKPSNTKVDKRV[omitted - human IgG4 Fc with S228P (EU numbers)]

TGA Velocity Index at 20 nM: 18.6
B2: TFPI-26 (antibody, human IgG1, lambda)
light: QSVLTQPPSLSGAPGQRVTISCTGSSSNLGADYDVQWYQQLPGTAPKLLIFGNNNRPSGVPDRFSGSRSGTSASLAITGLQAEDEANYYCQSYDRSLSGSMVFGGGTKLTVLGQPKAAPSVTLFPPSSEELQANKATLVCLISDFYPGAVTVAWKADSSPVKAGVETTTPSKQSNNKYAASSYLSLTPEQWKSHRSYSCQVTHEGSTVEKTVAPTECS
heavy: [omitted - about 100 residues]NGAAAAWDYWGQGTLVTVSSASTKGPSVFPLAPSSKSTSGGTAALGCLVKDYFPEPVTVSWNSGALTSGVHTFPAVLQSSGLYSLSSVVTVPSSSLGTQTYICNVNHKPSNTKVDKKVEPKSCDKTHTCPPCPAPEAAGAPSVFLFPPKPKDTLMISRTPEVTCVVVDVSHEDPEVKFNWYVDGVEVHNAKTKPREEQYNSTYRVVSVLTVLHQDWLNGKEYKCKVSNKALPAPIEKTISKAKGQPREPQVYTLPPSREEMTKNQVSLTCLVKGFYPSDIAVEWESNGQPENNYKTTPPVLDSDGSFFLYSKLTVDKSRWQQGNVFSCSVMHEALHNHYTQKSLSLSPG
